Source: the supplement of paper PMC3334620
Over roughly 33,000 sequences, “E-score (-0.5 to 0.5)” has its median near -0.054; the highest 2% begin near 0.35. The list shows a part of the results.

Biological target: T1, Stb5 (UniProt P38699)
T1 sequence: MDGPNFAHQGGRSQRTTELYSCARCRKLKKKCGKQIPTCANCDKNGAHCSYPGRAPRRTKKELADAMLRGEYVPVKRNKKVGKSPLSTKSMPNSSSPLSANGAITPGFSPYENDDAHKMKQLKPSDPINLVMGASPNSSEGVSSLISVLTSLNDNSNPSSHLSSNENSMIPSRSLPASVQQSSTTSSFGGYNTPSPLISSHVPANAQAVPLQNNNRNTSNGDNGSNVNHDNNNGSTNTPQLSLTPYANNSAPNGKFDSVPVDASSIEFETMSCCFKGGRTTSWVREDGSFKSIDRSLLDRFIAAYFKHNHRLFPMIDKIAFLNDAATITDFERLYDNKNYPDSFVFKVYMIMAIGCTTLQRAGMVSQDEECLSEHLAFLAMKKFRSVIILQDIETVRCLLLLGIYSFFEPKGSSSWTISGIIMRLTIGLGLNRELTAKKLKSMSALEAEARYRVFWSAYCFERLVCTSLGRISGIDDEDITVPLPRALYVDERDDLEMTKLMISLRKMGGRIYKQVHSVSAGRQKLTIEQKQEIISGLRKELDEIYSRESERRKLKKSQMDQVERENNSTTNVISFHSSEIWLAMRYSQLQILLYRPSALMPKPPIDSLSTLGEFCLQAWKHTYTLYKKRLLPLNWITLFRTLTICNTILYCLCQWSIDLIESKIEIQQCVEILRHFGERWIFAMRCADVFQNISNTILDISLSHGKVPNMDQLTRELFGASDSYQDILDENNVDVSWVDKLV
Experiment: PBM E-score (8-mer binding enrichment) (E-score (-0.5 to 0.5)); higher = stronger / more preferred TF binding; most listed sequences are background and not binding sites
Settings: protein concentration: 200 nM; construct: GST-full length
Protocol: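 Universal 'all 10-mer' protein binding microarrays (Agilent AMADID 015681) probed with GST-tagged S. cerevisiae TFs (full-length or DBD) made by in vitro transcription/translation (PURExpress), about 100-200 nM. Bound TF was detected with fluorescent anti-GST. Each ungapped 8-mer (which stands for itself and its reverse complement) is scored by the PBM enrichment score (E-score), a modified Wilcoxon-Mann-Whitney statistic from -0.5 to +0.5, computed with the Universal PBM Analysis Suite. Scale: above 0.35 generally sequence-specific binding.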

Sequence	PBM E-score
CGCCCAAC	-0.0675
ACCGCTGG	0.236
AGGGACAG	-0.257
AGAGTAAT	-0.033
TCATTGCA	-0.116
GAACTCGC	-0.267
TCTCAACA	-0.119
CCCGCGCC	0.243
AATTAGCG	0.106
AGAACGTA	-0.221
AGTAGCCG	0.112
ACTTCCAG	-0.184
AAAGTCAT	-0.114
AGCCATTG	-0.242
CACGAGGG	-0.118
AGGACTAA	-0.0498
AGATCCAC	-0.00803
GAGCGGAA	0.308
AATGTGAC	-0.19
ACAGGTAG	-0.174
AGCAAGGA	-0.216
CGTGTGCA	-0.0863
AAACGCGC	-0.00342
CACCCGTC	0.14
CAAGTGGG	-0.0971

Sequence	PBM E-score
ACTCACTG	-0.21
AAGTGTAA	-0.116
CAACGGCC	0.243
AACAACAA	-0.219
TACTGCTA	-0.195
AGGGCCCT	-0.173
ATCTGCTC	-0.117
AAACACAT	-0.16
GCAGGTTA	0.0704
AAATGACT	-0.216
ACTGCGGG	0.203
ATCAGACG	-0.00265
AGTCGTAC	-0.189
ATCCTCGG	0.0912
TGGAGCAA	-0.26
AGAATAGC	-0.0568
GCGTTGAC	-0.0261
ACGAGGGG	-0.208
CCCAATAA	-0.186
CCCAGGTA	-0.237
CCCCTCGA	-0.121
CAATGGGC	-0.188
GCTTATAC	0.106
AGAGAGTA	0.0964
TCTGGAAA	-0.225

Sequence	PBM E-score
GAGGCAAC	-0.0197
GTTGGTAA	-0.172
ACGTCCAA	0.0581
CGCTGCTA	0.326
TCCACCGA	0.176
AAGGGATG	-0.184
CGTGGAGA	0.102
ATGAGCGG	0.262
GGCTTAAC	0.172
ACGATTCG	0.0117
GACACTAA	-0.0425
AAGATCAA	-0.219
GATCTCAC	-0.111
CCGACTAA	0.22
TCTCGTCA	-0.14
ATCTATGC	-0.0365
GTTGCAAA	0.0461
AATTAATC	0.0324
AATAGCCA	-0.309
CTGCATGC	-0.113
AGGGTCTC	-0.26
CTCCGCGC	0.292
AGTGCCTC	-0.215
CGCGATAG	0.0818
AACAGCCC	0.0328

Sequence	PBM E-score
ATCGTACG	-0.0478
AAACGCAC	0.11
GAGAACTC	-0.0853
CCCAATGA	-0.219
AAGGTGCT	-0.0966
TCGAAAGA	-0.267
GACTAGGC	-0.0407
CTAAGCAC	0.0693
CTCCATCC	-0.185
GGTATGGA	0.185
AACAACCA	-0.198
CATCACGG	0.132
ACGCGTAG	0.0586
ATACAAGA	-0.14
GGATCTAC	0.0221
AACTGACC	0.0171
CGATGTAA	0.0356
GCCCAAGC	-0.0482
CACGGGAC	0.187
AATGCGAC	0.138
GGTCGCCA	-0.093
AGTAGCGC	0.215
GCTTGGAC	-0.0988
GCAGCCGC	0.0245
CTAAATTA	-0.0176

Sequence	PBM E-score
AAAACTTG	-0.105
CGGGCCAC	-0.0163
CCATCCTA	-0.0996
ATTAACCC	0.327
ACTAGTGA	-0.261
TAGAATCA	-0.0379
CTCCCTTA	-0.142
CCCATGTC	-0.0944
CTCGCCCC	0.0443
ATAATAAG	-0.0382
TAGTAAGA	-0.179
AGGCTAAC	-0.166
CGGCGGTC	0.355
CCTCACTC	-0.127
CAACACCC	-0.206
GTGTTGTA	-0.122
ACATCTAT	-0.0675
CTCCAGAA	-0.0921
AACAAGTC	-0.171
AAGACATA	-0.185
CTCGGGGA	0.0793
GGACATAA	0.332
AGCACCCC	-0.0285
AGTGATGA	-0.175
GTGAGTTA	-0.103

Sequence	PBM E-score
CGCGGGAA	0.272
GGAGATCA	-0.175
ATGGGGCA	-0.113
CAACTGAA	-0.216
CCGCCGAA	0.347
ACCCAGGC	0.127
CTCGCAAG	-0.259
AGTATTAA	-0.0112
AATGAGCG	0.0158
CGATATCC	0.0897
CGTATAAC	0.0916
ACGGCGTC	0.392
AATTGGTG	-0.12
GCGTCCAC	-0.0568
CATTTCCA	-0.272
GCTTAAAA	0.175
ATACTGCC	0.205
CCACCTTA	-0.132
CAGTGTCC	-0.0673
GTCAGGAA	-0.306
AACCGGCT	0.25
ACGCTGAT	0.0498
GTAAAATA	0.0594
ATAGCTTG	-0.09
AAGCGACC	0.0186

Sequence	PBM E-score
TACAGGGA	-0.152
CGTCGGAC	0.38
GGGGGCTA	0.0408
AGAACTGG	-0.185
AACGACCA	-0.237
AATACTGA	-0.19
AATGGCAT	0.0389
GGAGGACA	-0.109
ATGCTTCA	-0.174
GGACCAGA	-0.0836
TAAGACCA	-0.079
CTCCACCA	-0.0752
GGTCTAAA	0.0728
ACATACGG	0.117
GAAACAAC	-0.124
ACTTTCTA	-0.13
CGAGCTGC	-0.157
AGGTAGAA	-0.102
AAAAGGGC	-0.216
CGAGTTGA	-0.0448
GCACGGAA	-0.00259
GCGCATCA	-0.0162
